Measurements published in the supplement of paper PMC9446081.
Among all 39,000 compounds or so, about 220 (0.56%) showed activity. This is one part of the list.

These compounds were tested on Escherichia coli K-12 BW25113 (assay: relative growth (OD600 normalised to plate interquartile mean) (fraction); higher = less growth inhibition, active = 0.2 or less). Settings: 50 µM; LB; incubation time: overnight (16-24 h).
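Further: static incubation at 37 °C against the wild-type strain, values averaged over two biological replicates.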

Row | Structure (SMILES) | relative growth
1 | CC[C@H]1Sc2ccccc2NC1=O | inactive: 0.975
2 | CO[C@H]1CN(C)C(=O)c2cc(NC(=O)Nc3ccccc3)ccc2OC[C@@H](C)N(C(=O)CN(C)C)C[C@@H]1C | inactive: 0.983
3 | Cc1noc(C)c1NC(=O)N(C)C[C@@H]1Oc2ccc(NS(C)(=O)=O)cc2C(=O)N([C@H](C)CO)C[C@@H]1C | inactive: 1
4 | C[C@@H]1CCCCO[C@H](CN(C)Cc2ccncc2)[C@@H](C)CN([C@H](C)CO)C(=O)c2cc(NC(=O)Nc3cccc4ccccc34)ccc2O1 | inactive: 0.969
5 | C[C@H]1CN([C@@H](C)CO)C(=O)c2cccc(NS(=O)(=O)c3cn(C)cn3)c2O[C@@H]1CN(C)Cc1ccncc1 | inactive: 1.01
6 | C[C@@H]1CCCCO[C@@H](CN(C)C(=O)c2ccncc2)[C@H](C)CN([C@H](C)CO)C(=O)c2cc(NC(=O)NC3CCCCC3)ccc2O1 | inactive: 0.99
7 | C[C@H](CO)N1C[C@H](C)[C@H](CN(C)S(=O)(=O)c2cn(C)cn2)Oc2cc(C#Cc3cccc(F)c3)ccc2S1(=O)=O | inactive: 1.04
8 | C[C@@H]1CN([C@H](C)CO)C(=O)c2cc(NC(=O)Cc3cn(C)c4ccccc34)ccc2O[C@H]1CN(C)Cc1ccc(C(F)(F)F)cc1 | inactive: 1.01
9 | CC(C)CC#Cc1ccc2c(c1)O[C@@H](CN(C)C(=O)Cc1ccncc1)[C@H](C)CN([C@@H](C)CO)S2(=O)=O | inactive: 0.925
10 | C[C@H]1CN([C@@H](C)CO)C(=O)c2cccc(NC(=O)C3CC3)c2O[C@H]1CN(C)Cc1ccc(Oc2ccccc2)cc1 | inactive: 0.998
11 | C[C@H]1CN([C@@H](C)CO)C(=O)Cc2cc(NC(=O)c3ccncc3)ccc2O[C@@H]1CN(C)C(=O)Nc1ccc2c(c1)OCO2 | inactive: 0.98
12 | C[C@H](CO)N1C[C@H](C)[C@@H](CN(C)S(=O)(=O)c2cn(C)cn2)OCCCC[C@H](C)Oc2ccc(NS(=O)(=O)c3ccccc3)cc2C1=O | inactive: 1
13 | COc1ccc(CN(C)C[C@H]2OCCCC[C@H](C)Oc3ccc(NC(=O)Nc4ccc(OC)cc4)cc3C(=O)N([C@@H](C)CO)C[C@@H]2C)cc1 | inactive: 0.982
14 | C[C@H](CO)N1C[C@H](C)[C@@H](CN(C)S(C)(=O)=O)Oc2ccc(NC(=O)C3CCCCC3)cc2CC1=O | inactive: 0.992
15 | Cc1cccc(S(=O)(=O)N2C[C@@H](O)COC[C@@H]3O[C@@H](CC(=O)NCc4ccncn4)CC[C@H]32)c1 | inactive: 1.01
16 | COc1ccc(S(=O)(=O)Nc2cccc3c2O[C@H](CN(C)C(=O)NC(C)C)[C@H](C)CN([C@@H](C)CO)C3=O)cc1 | inactive: 0.982
17 | C[C@@H]1CN([C@H](C)CO)C(=O)c2cc(NC(=O)c3ccccc3)ccc2O[C@@H](C)CCCCO[C@H]1CN(C)C(=O)Cc1ccccc1 | inactive: 1.02
18 | C[C@@H]1CCCCO[C@H](CN(C)C(=O)CCCN(C)C)[C@H](C)CN([C@@H](C)CO)C(=O)c2cc(NS(C)(=O)=O)ccc2O1 | inactive: 0.997

Row | Structure (SMILES) | relative growth
19 | CCS(=O)(=O)NCC[C@@H]1CC[C@@H](NC(=O)C2CCOCC2)[C@H](CO)O1 | inactive: 0.982
20 | Cc1ccc(S(=O)(=O)Nc2ccc3c(c2)C(=O)N([C@@H](C)CO)C[C@@H](C)[C@H](CN(C)S(=O)(=O)c2ccc(C)cc2)OCCCC[C@@H](C)O3)cc1 | inactive: 1.02
21 | C[C@@H]1CN([C@H](C)CO)C(=O)c2cc(NS(C)(=O)=O)ccc2O[C@@H]1CN(C)S(=O)(=O)c1cn(C)cn1 | inactive: 0.991
22 | CO[C@@H]1[C@@H](O[C@@H]2O[C@H](C)[C@@H](O[C@H]3C[C@@](C)(O)[C@@H](OC(=O)CC(C)C)[C@H](C)O3)[C@H](N(C)C)[C@H]2O)[C@@H](CC=O)C[C@@H](C)[C@@H](O)/C=C/C=C/CC(C)OC(=O)C[C@H]1OC(C)=O (stereo not given in full) | inactive: 0.352
23 | C[C@H]1CN([C@@H](C)CO)S(=O)(=O)c2ccc(C#CC3CC3)cc2O[C@H]1CN(C)C(=O)Cc1ccncc1 | inactive: 1
24 | O=C(C[C@@H]1C=C[C@H](NC(=O)c2ccc3c(c2)OCO3)[C@H](CO)O1)NCc1ccc(Oc2ccccc2)cc1 | inactive: 0.984
25 | CC(C)NC(=O)Nc1ccc2c(c1)C(=O)N([C@H](C)CO)C[C@@H](C)[C@@H](CN(C)C(=O)C1CCCCC1)OCCCC[C@H](C)O2 | inactive: 0.995
26 | C[C@H](CO)N1C[C@H](C)[C@H](CN(C)S(C)(=O)=O)Oc2ccc(NC(=O)Nc3ccccc3)cc2C1=O | inactive: 1.02
27 | COC(=O)[C@@]12CC[C@@H](C)[C@@H](C)[C@@H]1C1=CC[C@H]3[C@@]4(C)CC[C@@H](OC(C)=O)C(C)(C)[C@@H]4CC[C@@]3(C)[C@@]1(C)CC2 | inactive: 0.98
28 | C[C@H]1CN([C@@H](C)CO)C(=O)Cc2cc(N(C)C)ccc2O[C@H]1CN(C)C(=O)Nc1ccc2c(c1)OCO2 | inactive: 0.999
29 | C[C@H]1CN([C@@H](C)CO)C(=O)c2cccc(NC(=O)CCCCCC(=O)Nc3ccccc3N)c2O[C@@H]1CN(C)S(C)(=O)=O | inactive: 1.03
30 | C[C@@H]1CN([C@H](C)CO)C(=O)Cc2cc(NC(=O)Nc3ccc(C(F)(F)F)cc3)ccc2O[C@H]1CN(C)S(C)(=O)=O | inactive: 0.971
31 | Cc1ccc(S(=O)(=O)N(C)C[C@H]2Oc3ccc(NS(=O)(=O)c4cccs4)cc3CC(=O)N([C@H](C)CO)C[C@@H]2C)cc1 | inactive: 0.999
32 | Cc1ccc(S(=O)(=O)N(C)C[C@H]2Oc3ccc(NC(=O)c4ccncc4)cc3CC(=O)N([C@@H](C)CO)C[C@H]2C)cc1 | inactive: 1
33 | C[C@H](CO)N1C[C@H](C)[C@@H](CN(C)S(=O)(=O)c2cccs2)Oc2ccc(NS(=O)(=O)c3cn(C)cn3)cc2C1=O | inactive: 0.994
34 | O=C1O[C@H](c2ccccc2)[C@H](c2ccccc2)N2[C@H]1[C@@H](C(=O)Nc1nc3ccccc3s1)[C@]1(C(=O)Nc3ccc(C#CCCO)cc31)[C@H]2c1ccc(OCCO)cc1 | inactive: 1.07
35 | Cn1c(=O)c2c(nc(NCCO)n2C)n(C)c1=O | inactive: 0.906
